The values below come from publication PMC4336329 (PLoS ONE, 2015).

Molecules are shown by their SMILES. Out of some 310,000 compounds screened, about 14,000 (4.5%) showed an effect of 50% or more. The effect is printed as a negative number. The list shows a part of the results.
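Further: peak tail current of the secondary pulse compared with the same well before compound.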

Chain of human ether-à-go-go-related gene (hERG) potassium channel (Q12809 whole entry, looked up): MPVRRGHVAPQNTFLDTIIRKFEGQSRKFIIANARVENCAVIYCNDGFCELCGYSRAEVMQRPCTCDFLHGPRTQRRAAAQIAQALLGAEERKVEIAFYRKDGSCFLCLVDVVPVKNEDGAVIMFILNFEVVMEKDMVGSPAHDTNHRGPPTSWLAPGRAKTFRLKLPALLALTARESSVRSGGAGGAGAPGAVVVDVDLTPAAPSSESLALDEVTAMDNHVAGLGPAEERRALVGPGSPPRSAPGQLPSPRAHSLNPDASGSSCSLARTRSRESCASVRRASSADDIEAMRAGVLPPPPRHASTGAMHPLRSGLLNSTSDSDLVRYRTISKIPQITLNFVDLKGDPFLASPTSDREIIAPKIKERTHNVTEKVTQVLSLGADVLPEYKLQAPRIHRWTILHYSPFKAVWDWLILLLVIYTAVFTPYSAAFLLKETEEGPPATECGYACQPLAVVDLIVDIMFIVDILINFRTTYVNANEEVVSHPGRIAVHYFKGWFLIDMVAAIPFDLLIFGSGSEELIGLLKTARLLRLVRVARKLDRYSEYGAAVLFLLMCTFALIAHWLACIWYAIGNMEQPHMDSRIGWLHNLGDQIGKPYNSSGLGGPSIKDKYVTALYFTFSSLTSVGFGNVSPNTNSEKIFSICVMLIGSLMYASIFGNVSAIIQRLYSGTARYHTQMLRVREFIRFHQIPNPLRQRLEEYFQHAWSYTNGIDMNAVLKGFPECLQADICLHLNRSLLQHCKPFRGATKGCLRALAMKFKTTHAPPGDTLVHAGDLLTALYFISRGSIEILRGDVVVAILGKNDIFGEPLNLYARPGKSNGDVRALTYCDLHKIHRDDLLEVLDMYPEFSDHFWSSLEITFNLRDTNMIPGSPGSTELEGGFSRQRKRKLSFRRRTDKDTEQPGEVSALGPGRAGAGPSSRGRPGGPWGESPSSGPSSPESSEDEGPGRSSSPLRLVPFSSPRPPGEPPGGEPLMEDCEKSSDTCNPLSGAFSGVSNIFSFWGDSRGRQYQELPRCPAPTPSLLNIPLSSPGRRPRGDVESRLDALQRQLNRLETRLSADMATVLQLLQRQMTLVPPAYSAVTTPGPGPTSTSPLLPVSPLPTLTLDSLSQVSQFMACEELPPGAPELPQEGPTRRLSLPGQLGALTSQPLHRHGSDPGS

This assay has as its target human ether-à-go-go-related gene (hERG) potassium channel (human, UniProt Q12809). The experiment in a line: primary screen, population patch clamp on CHO cells stably expressing hERG.
On to `CC(=O)c1ccc(OCc2cc(C(=O)N3CCCCCCC3)no2)cc1`, for which the “hERG current change (%, negative = inhibition) at 10uM” value was -19.8%.
For `COc1ccccc1NC(=O)c1ccc(S(=O)(=O)N(C)C)cc1`, the “hERG current change (%, negative = inhibition) at 10uM” value is 3.79%.
Then `COc1ccc(C(=O)NC(=S)Nc2ccc(CN3CCOCC3)cc2)cc1OC`, with -7.16%.
Take `CCOc1ccccc1NC(=O)c1cc(Cl)ccc1NC(=O)c1ccco1`: the “hERG current change (%, negative = inhibition) at 10uM” value was -4.54%.
Then `Cc1nn(CC(=O)Nc2c(F)cc(F)cc2Br)c(=O)c2cccn12`, with 18.9%; and `COC(=O)c1nn(-c2ccccc2)ccc1=O`, with 19.1%; and `CN1CCN(c2oc(-c3ccccc3)nc2S(=O)(=O)c2ccc(Br)cc2)CC1`, with -68.6%.
The figure for `COc1cccc(C2SCC(=O)N2c2ccc(Cl)cc2)c1OC` (centres unmarked) is -36.1%; for `Cc1cccc(NC(=O)c2cc(-c3ccccn3)nc3ccccc23)c1C` it is 12.5%.
Then `CCc1ccc(C2c3[nH]c4ccccc4c3CCN2C(=O)c2ccc(=O)n(C)n2)cc1` (centres unmarked), with -0.653%; and `Cc1ccc(NC2Nc3cc(C)nn3S2)c(C)c1` (centres unmarked), with 0.514%; and `COc1ccc(/C=C(/NC(=O)c2ccco2)C(=O)N2CCOCC2)cc1`, with 2.13%.
`COc1ccc2nc(Nc3nc4cc5c(cc4s3)OCO5)sc2c1`: the “hERG current change (%, negative = inhibition) at 10uM” value turned out to be 6.67%.
The figure for `COCCNC(=O)C(=O)N/N=C(\C)CC(=O)Nc1ccc(Cl)cc1Cl` is -2.81%.
Then `COC(=O)/C(=C\Nc1ccc(Cl)cc1Cl)NC(=O)c1ccc(Cl)cc1Cl`, with -6.66%; and `Clc1ccc(CCNc2ncnc3nc[nH]c23)cc1`, with 0.634%.
The figure for `CC(C)(C)NC(=O)CSc1nc(-c2ccccc2)cc(=O)[nH]1` is 23%; for `COCCn1c(=O)[nH]c2cc(C(=O)NCc3ccccc3)ccc2c1=O` it is 6.78%; for `Cc1cc(-c2ccc(S(=O)(=O)N3CCCCC3)s2)on1` it is 12.5%.
As for `NC(=O)c1cccn1-c1ncc(C(F)(F)F)cc1Cl`, the “hERG current change (%, negative = inhibition) at 10uM” value was 7.9%.
Then `Cc1ccc(CNC(=O)COC(=O)Cc2ccc(-c3ccccc3)cc2)cc1`, with 13.8%; and `COc1ccc(Nc2nc(C)nc3c2oc2ccccc23)cc1`, with 3.77%.
The figure for `Cc1sc2nc(CSCC(=O)Nc3ccc(C(F)(F)F)cc3)[nH]c(=O)c2c1C` is -21.1%; for `O=C(CN(C(=O)c1csnn1)c1cccc(F)c1)NCc1ccc(F)cc1` it is -25.7%; for `CCOC(=O)c1cc(C)n(Cc2ccc(OCC)c(OC)c2)c1C` it is -3.03%.
Regarding `CCCCNC(=O)O[C@@H]1C[C@H]2CCC(=O)N3CC[C@@H](C1)[C@@H]23`, the “hERG current change (%, negative = inhibition) at 10uM” value was 3.18%.
Turning to `COc1cccc(C(=O)NCc2ccco2)c1`, the “hERG current change (%, negative = inhibition) at 10uM” value amounted to 17.3%.
The figure for `COc1ccc(CCNC(=O)[C@H](C)N2C(=O)N3CCc4c([nH]c5ccccc45)[C@@]3(C)C2=O)cc1OC` is -10.1%.
As to `Nc1c2c(nc3c1CCCC3)CCCC2.O=C(O)c1cc[nH]c(=O)c1`, the “hERG current change (%, negative = inhibition) at 10uM” value is -10.1%.
Then `COC(=O)C1=C(C)NC(C)=C(C(=O)OC)C1c1cc2ccc(C)cc2[nH]c1=O`, with 9.13%; and `CCOC(=O)c1cc2sc(C)cc2n1CC(=O)N(CC)CC`, with -2.35%.
For the compound `O=C(/C=C/c1ccccc1Cl)Nc1cccnc1`, the “hERG current change (%, negative = inhibition) at 10uM” value is listed as 5.98%.
Turning to `Cc1occc1C(=O)NCc1ccco1`, the “hERG current change (%, negative = inhibition) at 10uM” value was found to be 31%.
The figure for `COc1ccc2oc(=O)c(-c3nnc(N)s3)cc2c1` is 18.5%.
As for `O=C(COC(=O)Cc1ccccc1F)Nc1cccc(S(=O)(=O)NC2=NCCCCC2)c1`, the “hERG current change (%, negative = inhibition) at 10uM” value was -13.1%.
Then `Cc1ccn2c(/C=N/OCc3cccc(F)c3)c(-c3ccc(Cl)cc3)nc2c1`, with -10.1%; and `CCN(CC)CCNC(=O)C1CCC(=O)N(c2ccc(OC)cc2)C1c1ccc(F)cc1` (centres unmarked), with -5.79%.
The figure for `CCOC(=O)c1c(/N=C/N(C)C)sc(/C=N/Nc2ccccc2)c1-c1ccccc1Cl` is 22.5%; for `CCC(C)Sc1ccc([C@@H]2[C@@H]3C(=O)N(C)C(=O)[C@@H]3[C@]3(C(=O)OC)CCCCN23)cc1OC.O=C(O)C(F)(F)F` (some centres unmarked) it is -22%.
For the compound `Cc1nc(-c2ccc3c(c2)CCC(=O)N3)cs1`, the “hERG current change (%, negative = inhibition) at 10uM” value is recorded as 5.1%.
Then `O=C(Nc1nnc(C23CC4CC(CC(C4)C2)C3)s1)c1ccco1`, with 13.2%.
Then `O=C(NCc1ccccc1)C1CC(=O)N(C2CCCCCC2)C1` (centres unmarked), with 16.8%; and `O=C1NCCN1Cc1ccccc1`, with -8.57%.
The figure for `CC1CN(C)C(C)(C)CC1(O)c1ccccc1.Cl` (centres unmarked) is 3.3%; for `Cc1cc(C)n(CC(=O)N/N=C/c2c[nH]c3ccccc23)n1` it is 15%.
As for `CC(=O)OCC(=O)[C@@]1(O)CC[C@H]2[C@@H]3C[C@H](C)C4=CC(=O)C=C[C@]4(C)[C@H]3[C@@H](O)C[C@@]21C`, the “hERG current change (%, negative = inhibition) at 10uM” value came to 16.4%.
The figure for `Cc1ccc(-c2nnc3c4ccccc4c(C)nn23)cc1S(=O)(=O)N1CCN(C)CC1` is -6.7%.
The figure for `CCOCC(=O)NCc1ccc2c(c1)OCO2` is -0.263%.
The figure for `N#Cc1c(N)c(C(=O)c2ccc(Br)cc2)n2c1CCC2` is -5%; for `CN(CC(=O)Nc1cccc(F)c1)C(=O)CCc1nc2sc3c(c2c(=O)[nH]1)CCCC3` it is 1.1%; for `Clc1ccc(CN2CCN(/N=C/c3ccco3)CC2)cc1` it is -12.1%.
For the compound `CC1=C(C(=O)OCc2ccc3c(c2)OCO3)C(c2ccc(Cl)cc2)NC(=O)N1` (centres unmarked), the “hERG current change (%, negative = inhibition) at 10uM” value was 1.67%.
The figure for `COc1ccc(S(=O)(=O)N2CCOCC2)cc1NC(=O)CSc1nnc(C2CC2)n1N` is 12.7%; for `Cc1ccc(NC(=O)c2ccccc2O)cc1` it is 1.62%.
Then `O=C(CC(=O)c1cc(Cl)ccc1O)c1ccccc1`, with -3.98%; and `Cc1ccc(C(=O)ON=C2CCN(S(=O)(=O)c3ccccc3)CC2)cc1`, with -17.7%.
The figure for `Cc1ccc(C)c(Cn2nnc3c(=O)[nH]c(C4CCCN(C(=O)c5ccco5)C4)nc32)c1` (centres unmarked) is -38.3%; for `Nc1nc(SCC(=O)Nc2ccc(C(F)(F)F)cc2)[nH]c(=O)c1NC(=O)c1ccc(F)c(F)c1` it is 19.4%.
As to `COc1ccc(CC(=O)Nc2ccc(S(=O)(=O)N3CCCC3)cc2)c(OC)c1`, the “hERG current change (%, negative = inhibition) at 10uM” value is given as -18.6%.
Then `CCN(CC)CCCNC(=O)C(C)n1nc(C)c2sc3ccccc3c2c1=O` (centres unmarked), with -19.7%; and `CC(=O)Nc1nc2c(s1)C(=O)NCCC2`, with -2.05%; and `O=C(NN1CCCCC1)c1cccc(COc2ccc(Cl)cc2)c1`, with -7.67%.
The figure for `CSc1ncc(Cl)c(C(=O)Nc2cccc(C)c2)n1` is -4.24%; for `Cc1ccc2nc(C3CCCN3Cc3nc(CCC(C)C)no3)[nH]c2c1` (centres unmarked) it is -9.15%.
The figure for `CC/C(=N\Nc1ccccc1)c1c(O)n(-c2ccc(OC)cc2)c(=O)[nH]c1=O` is 8.4%; for `O=C(COC(=O)c1ccc(S(=O)(=O)N2CCCCC2)cc1)NCc1ccco1` it is 10.2%.
For the compound `CCCCC(C)n1[nH]c(=O)c2c(C)cc(C)nc21` (centres unmarked), the “hERG current change (%, negative = inhibition) at 10uM” value is on record as -13.9%.
Then `Nc1ccc(OCCCc2c(N)nc(N)nc2N)cc1`, with -4.21%; and `O=C(NC(=S)NCC1CCCO1)c1cccc([N+](=O)[O-])c1` (centres unmarked), with 2.05%; and `CCc1ccc(C(N)=S)cc1`, with 18.9%.
Then `Cc1ccc(NC(=O)CC2CCCC2)c(Br)c1`, with -18.3%.
For `CCCSc1nc(O)c(C2OC(=O)c3c2ccc(OC)c3OC)c(=O)n1C` (centres unmarked), the “hERG current change (%, negative = inhibition) at 10uM” value turned out to be 18.3%.
Then `O=C(CN1C(=O)NC2(CCCCC2)C1=O)N1CCN(C(=O)c2cccs2)CC1`, with 5.71%.
Regarding `Cc1cc(NC(=O)CCCC(=O)Nc2ccc(F)cc2)no1`, the “hERG current change (%, negative = inhibition) at 10uM” value was -3.52%.
The figure for `O=C1CCCC(O)=C1N=Nc1ccc(C(=O)O)cc1` is 15.9%; for `Cc1ccccc1CSc1nnc(-c2cnccn2)n1C` it is 7.84%; for `O=C(CC12CC3CC(CC(C3)C1)C2)NCc1ccco1` it is 13.5%.
The figure for `COCCNC(=O)C(OC(=O)c1cccs1)c1ccccc1` (centres unmarked) is 13.8%.
Then `O=c1c2[nH]c3ccccc3c2ncn1Cc1ccco1`, with 22.2%; and `CCOC(=O)c1c(CN(CC)CC)n(C)c2cc(Br)c(O)cc12.Cl`, with -73.6%.
For `COC(=O)c1cccnc1SCc1ccccc1`, the “hERG current change (%, negative = inhibition) at 10uM” value was -14.9%.
Then `CCc1nnc(NC(=O)C2CCC2)s1`, with 2.37%; and `CCc1ccc(-c2cnc3nc[nH]c(=O)c3n2)cc1`, with 17.4%.
The figure for `CN(C)c1ccc(C(=O)/C=C/c2ccccc2)cc1` is 8.65%; for `CC(OC(=O)c1ccc(C(C)(C)C)cc1)C(=O)NC1CCCCC1C` (centres unmarked) it is 17.1%.
Then `COC(=O)c1ccccc1NC(=O)CSc1nnnn1CC(=O)O`, with 16.9%; and `N/C(CCN1CCOCC1)=N/O`, with 17.9%.
For the compound `COc1cc(NC(=O)Nn2cnnc2)cc(OC)c1OC`, the “hERG current change (%, negative = inhibition) at 10uM” value is on record as 16.3%.
The figure for `COc1cc(C(=S)N2CCN(c3ccccc3Cl)CC2)cc(O)c1O` is -13.4%; for `COC(=O)c1ccc(NS(=O)(=O)c2cc3c4c(c2)CCN4C(=O)CC3)cc1` it is -0.521%; for `CN(C(=O)CCS(=O)(=O)c1ccc2c(c1)oc(=O)n2C)C1CCCCC1` it is 3.68%.
The figure for `Cc1ccc(C)c(C(=O)COC(=O)c2nn(C)c(=O)c3ccccc23)c1` is -25.6%.
